Laboratory results: PubChem BioAssay (Tox21)
The shares of active, inactive and inconclusive entries below differ from those in the screen. For part of these data: Potencies of inconclusive entries are doubtful fits and often do not repeat. Activity calls are given as the source filed them. Unless noted, calls come from the whole dose curve; as a rule, active = well fitted curve in the direction sought with a large enough effect in the repeat runs; inconclusive = weak or mixed curves; inactive = no such curve, though single readings can be large; an effect the other way counts as inactive or inconclusive.

What was measured:
[1] = qHTS assay to identify small molecule antagonists of the estrogen receptor alpha (ER-alpha) signaling pathway using the BG1 cell line - cell viability counter screen (AID 743081); conditions: BG1Luc4E2 viability, CellTiter-Fluor, 22 h; activity change, negative = cytotoxicity: at 70.3 µM (top of the series);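 note: compound given together with 17beta-estradiol as the ER stimulus; nearly all actives have a fitted effect of over 45% in size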; note: potency is the fitted concentration of half-maximal effect
[2] = molecular target: Aryl hydrocarbon receptor (Homo sapiens) (UniProt P35869); experiment: qHTS assay to identify small molecule that activate the aryl hydrocarbon receptor (AhR) signaling pathway (AID 743085); note: potency is the fitted concentration of half-maximal effect; nearly all actives have a fitted effect of over 15% in size
Summary of the method: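 HepG2 cells stably carrying a 20-DRE firefly luciferase reporter (HG2L7.5c1) treated with compound for 24 hr at 37C. Luciferase read by ONE-Glo luminescence, with CellTiter-Fluor viability read first.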

[3] = molecular target: Peroxisome proliferator-activated receptor gamma (Homo sapiens) (UniProt P37231); experiment: qHTS assay to identify small molecule antagonists of the peroxisome proliferator-activated receptor gamma (PPARg) signaling pathway (AID 743191; calls by dose curve; note: nearly all actives have a fitted effect of over 30% in size; note: potency is the fitted concentration of half-maximal effect; for ratio activity, negative = inhibition: % is set by controls: 0 for no effect and ±100 for the full control effect); conditions: HEK293H PPARg-UAS-bla, beta-lactamase ratio, antagonist, 17 h; ratio activity, negative = inhibition: at 62.6 µM (top of the series) unless noted
Summary of the method: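 GeneBLAzer PPARg UAS-bla HEK293H cells, 5 h post-plating, exposed to compounds 17 h at 37C. LiveBLAzer B/G FRET substrate added for 1 h at room temperature; beta-lactamase reporter read by fluorescence intensity.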

[4] = qHTS assay to identify small molecule antagonists of the peroxisome proliferator-activated receptor gamma (PPARg) signaling pathway - cell viability counter screen (AID 743194); conditions: PPARg-bla HEK293H viability, CellTiter-Glo luminescence, 17 h, co-treated with 50 nM rosiglitazone; activity change, negative = cytotoxicity: at 62.6 µM (top of the series) unless noted; note: nearly all actives have a fitted effect of over 55% in size; note: potency is the fitted concentration of half-maximal effect; for activity change, negative = cytotoxicity: % is set by controls: 0 for no effect and ±100 for the full control effect
Summary of the method: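 Cytotoxicity counter screen in PPARg-bla HEK293H cells, same wells as reporter assay. Compounds plus 50 nM rosiglitazone (final) for 17 h at 37 C, then viability read by CellTiter-Glo luminescence.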

[5] = qHTS assay to identify aromatase inhibitors - cell viability counter screen (AID 743084); conditions: MCF-7 aro ERE viability, CellTiter-Fluor, 24 h; activity change, negative = cytotoxicity: at 70.3 µM (top of the series);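 note: cells stimulated with testosterone during compound exposure; nearly all actives have a fitted effect of over 55% in size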; note: potency is the fitted concentration of half-maximal effect; for activity change, negative = cytotoxicity: % is set by controls: 0 for no effect and ±100 for the full control effect
[6] = qHTS assay to identify small molecule that activate the aryl hydrocarbon receptor (AhR) signaling pathway - cell viability counter screen (AID 743086); note: potency is the fitted concentration of half-maximal effect; nearly all actives have a fitted effect of over 45% in size
Summary of the method: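 HepG2-AhR-luc (HG2L7.5c1) cells, 4000/well, treated 24 h at 37 C with compound; viability measured as CellTiter-Fluor fluorescence after 30 min in the same wells as the luciferase read.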

Aromatase (Homo sapiens) = Aromatase (Homo sapiens) (UniProt P11511); experiment: qHTS assay to identify aromatase inhibitors (AID 743083); conditions: MCF-7 aro ERE, testosterone-driven ERE luciferase, 24 h; activity, negative = inhibition: at 70.3 µM (top of the series); note: nearly all actives have a fitted effect of over 55% in size; note: potency is the fitted concentration of half-maximal effect
[7] = molecular target: Peroxisome proliferator-activated receptor gamma (Homo sapiens) (UniProt P37231); experiment: qHTS assay to identify small molecule agonists of the peroxisome proliferator-activated receptor gamma (PPARg) signaling pathway (AID 743094; active = well fitted activation curve with a large enough effect in the signal ratio in the repeat runs, not every such curve was filed as active; inconclusive = weak or mixed curves, or effect the other way; inactive = no such curve, though single readings can be large or run the other way; the % refers to the signal ratio; note: % is set by controls: 0 for no effect and ±100 for the full control effect); conditions: HEK293H PPARg-UAS-bla, beta-lactamase FRET ratio, 17 h; activation: at 57 µM (top of the series) unless noted
Summary of the method: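 Agonist activity was taken from a beta-lactamase reporter (FRET substrate, 1 h at room temperature) in HEK293H cells carrying a PPARg UAS-bla construct. Compounds in DMSO were incubated 17 h at 37C after a 5 h cell pre-incubation.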
Tags give direction and shape of the fitted curve or compound fluorescence and quenching.

Sequence of UniProt P37231 (P37231 whole entry, looked up): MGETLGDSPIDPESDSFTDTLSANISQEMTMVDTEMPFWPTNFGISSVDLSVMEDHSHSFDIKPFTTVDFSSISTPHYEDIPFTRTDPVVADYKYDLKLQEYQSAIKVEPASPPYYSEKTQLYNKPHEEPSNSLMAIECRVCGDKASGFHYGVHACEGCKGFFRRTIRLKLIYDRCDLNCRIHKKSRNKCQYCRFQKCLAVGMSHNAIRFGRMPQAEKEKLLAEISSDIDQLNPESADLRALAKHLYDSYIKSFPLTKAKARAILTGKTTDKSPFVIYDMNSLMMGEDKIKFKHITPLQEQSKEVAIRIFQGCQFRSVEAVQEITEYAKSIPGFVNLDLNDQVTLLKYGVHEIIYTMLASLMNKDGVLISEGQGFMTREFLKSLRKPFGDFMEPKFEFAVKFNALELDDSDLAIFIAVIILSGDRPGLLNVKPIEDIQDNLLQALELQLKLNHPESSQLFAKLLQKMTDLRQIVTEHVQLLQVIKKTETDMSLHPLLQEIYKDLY
Sequence of UniProt P11511 (P11511 whole entry, looked up): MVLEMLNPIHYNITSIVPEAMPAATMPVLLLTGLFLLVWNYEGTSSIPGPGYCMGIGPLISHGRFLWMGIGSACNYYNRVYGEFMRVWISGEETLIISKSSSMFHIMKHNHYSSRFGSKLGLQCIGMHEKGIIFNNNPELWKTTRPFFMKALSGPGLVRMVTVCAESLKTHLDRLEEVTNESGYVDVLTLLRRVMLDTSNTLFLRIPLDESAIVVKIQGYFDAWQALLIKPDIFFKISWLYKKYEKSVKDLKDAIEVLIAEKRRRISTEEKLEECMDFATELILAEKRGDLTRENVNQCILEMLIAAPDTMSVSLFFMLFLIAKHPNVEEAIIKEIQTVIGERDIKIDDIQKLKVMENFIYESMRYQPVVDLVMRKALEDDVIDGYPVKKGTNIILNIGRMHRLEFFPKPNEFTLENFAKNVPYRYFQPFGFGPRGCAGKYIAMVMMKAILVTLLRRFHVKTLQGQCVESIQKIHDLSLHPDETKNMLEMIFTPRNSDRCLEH
Sequence of UniProt P35869 (P35869 whole entry, looked up): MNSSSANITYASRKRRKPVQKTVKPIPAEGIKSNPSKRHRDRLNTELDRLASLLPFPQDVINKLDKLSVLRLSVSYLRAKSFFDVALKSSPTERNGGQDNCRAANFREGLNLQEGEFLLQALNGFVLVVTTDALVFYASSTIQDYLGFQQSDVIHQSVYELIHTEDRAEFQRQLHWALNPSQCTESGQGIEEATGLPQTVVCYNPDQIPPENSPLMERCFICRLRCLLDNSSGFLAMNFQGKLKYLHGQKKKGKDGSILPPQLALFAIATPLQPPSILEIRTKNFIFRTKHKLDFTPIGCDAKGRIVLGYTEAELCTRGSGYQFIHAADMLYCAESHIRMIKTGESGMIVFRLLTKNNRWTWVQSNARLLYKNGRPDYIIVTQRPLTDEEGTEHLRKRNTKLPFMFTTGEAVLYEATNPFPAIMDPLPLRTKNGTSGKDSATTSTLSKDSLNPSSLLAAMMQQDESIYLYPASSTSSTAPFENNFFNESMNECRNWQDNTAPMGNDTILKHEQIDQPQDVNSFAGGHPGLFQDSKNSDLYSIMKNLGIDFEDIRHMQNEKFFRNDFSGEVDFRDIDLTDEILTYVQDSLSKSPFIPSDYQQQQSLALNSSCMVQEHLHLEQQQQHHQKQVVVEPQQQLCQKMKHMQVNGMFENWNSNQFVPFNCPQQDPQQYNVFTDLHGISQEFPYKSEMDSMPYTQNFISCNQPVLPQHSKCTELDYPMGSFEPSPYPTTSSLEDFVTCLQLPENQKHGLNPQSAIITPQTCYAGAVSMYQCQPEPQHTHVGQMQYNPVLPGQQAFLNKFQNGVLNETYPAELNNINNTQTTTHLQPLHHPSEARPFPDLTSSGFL

CCCCNc1ccc(C(=O)OCCN(CC)CC)cc1
Potency [1]: inconclusive: 18.8 µM [cytotoxic, single point] | Potency [2]: inconclusive: 21.1 µM [activator, partial curve] | Potency [3]: inactive | Potency [4]: inactive

CCN(CC)CCOc1ccc2c(c1)C(=O)c1cc(OCCN(CC)CC)ccc1-2
Potency [1]: inconclusive: 33.5 µM [cytotoxic, partial curve] | Potency [5]: inactive | Potency [6]: inconclusive: 33.5 µM | Potency [4]: active: 29.8 µM

CCCCCCOC(=O)CCCCCCCC(=O)OCCCCCC
Potency [1]: inactive

COC(=O)C1CC(=O)C(C(=O)OC)CC1=O (stereo not given)
Potency [1]: inconclusive: 2.13 µM [rising, partial curve, poor fit] | Potency [5]: inconclusive: 2.39 µM [rising, partial curve]

Cc1ccccc1C(=O)Nc1ccc(C(=O)N2CCCC(O)c3cc(Cl)ccc32)c(C)c1 (stereo not given)
Potency [1]: inconclusive: 13.3 µM [cytotoxic, partial curve, poor fit] | Potency (Aromatase (Homo sapiens)): inconclusive: 29.8 µM [inhibitor] | Potency [5]: inactive | Potency [6]: inconclusive: 33.5 µM [falling, partial curve, poor fit] | activation [7]: inconclusive: -15.4% | Potency [3]: inactive

CCCCC(=O)O
Potency [1]: inconclusive: 18.8 µM [rising, partial curve, poor fit] | Potency [6]: inconclusive: 0.172 µM [rising, partial curve, poor fit]

CCCCSCCCC
Potency [1]: inactive | Potency [5]: inactive | Potency [3]: inactive

COc1ccc(N=Nc2cc(C)c(N=Nc3ccc(S(=O)(=O)O)cc3)cc2OC)cc1
Potency [1]: inconclusive: 24.3 µM [cytotoxic, partial curve, poor fit] | Potency [2]: inconclusive: 48.6 µM [activator, partial curve] | ratio activity, negative = inhibition [3]: inconclusive: -5.01%

OC1CCCCC1c1ccccc1 (stereo not given)
Potency [1]: inactive

COc1ccc(CN(CCN(C)C)c2ccccn2)cc1
Potency [1]: inconclusive: 63.2 µM [cytotoxic, partial curve, poor fit] | Potency [5]: inconclusive: 60.5 µM [cytotoxic, single point] | Potency [6]: inconclusive: 70.9 µM [falling, partial curve, poor fit]

Nc1cccc(S(=O)(=O)O)c1
Potency [1]: inactive | Potency [5]: inactive | Potency [3]: inactive

Cc1c(I)c(=O)n(-c2ccccc2)n1C
Potency [1]: inactive

Nc1ccc(N)c2c1C(=O)c1ccccc1C2=O
Potency [1]: active: 24.3 µM | Potency (Aromatase (Homo sapiens)): inconclusive: 54.5 µM [inhibitor, single point] | Potency [5]: active: 17.2 µM | ratio activity, negative = inhibition [3]: inconclusive: -3.12%

O=C(O)c1ccc2c(c1)nc(C(=O)NC1CCN(C3CC3)CC1)n2Cc1cc(-c2ccc(Cl)s2)on1
Potency [1]: inactive | Potency [5]: inconclusive: 12.4 µM [rising, partial curve, poor fit] | activation [7]: inconclusive: -14% [at 26.2 µM] | Potency [3]: active: 3.13 µM

CCc1cccc(N(C)C(N)=Nc2cccc3ccccc23)c1
Potency [1]: inconclusive: 13.3 µM [cytotoxic, full curve] | Potency (Aromatase (Homo sapiens)): inactive | Potency [5]: inactive

C[C@@H]1O[C@@H](O[C@@H]2[C@@H](O)[C@H](OCCc3ccc(O)c(O)c3)O[C@H](CO[C@@H]3O[C@H](CO)[C@@H](O)[C@H](O)[C@H]3O)[C@H]2OC(=O)/C=C/c2ccc(O)c(O)c2)[C@H](O)[C@H](O)[C@H]1O
Potency [1]: inconclusive: 66.4 µM [cytotoxic, single point]
